Experimental data: article PMC6193622
No constants are given. Whether binding was seen depends on the method and setting. For some assays here: Binding seen in cells or lysates may run through a third protein. Some entries that bind do so weakly or less than the wild type. Where a sequence is shown, tags or fusion partners need not be part of it.

Protein sequences, listed by entry. Tags and fused reporters are not part of them.
UniProt Q9BXW9: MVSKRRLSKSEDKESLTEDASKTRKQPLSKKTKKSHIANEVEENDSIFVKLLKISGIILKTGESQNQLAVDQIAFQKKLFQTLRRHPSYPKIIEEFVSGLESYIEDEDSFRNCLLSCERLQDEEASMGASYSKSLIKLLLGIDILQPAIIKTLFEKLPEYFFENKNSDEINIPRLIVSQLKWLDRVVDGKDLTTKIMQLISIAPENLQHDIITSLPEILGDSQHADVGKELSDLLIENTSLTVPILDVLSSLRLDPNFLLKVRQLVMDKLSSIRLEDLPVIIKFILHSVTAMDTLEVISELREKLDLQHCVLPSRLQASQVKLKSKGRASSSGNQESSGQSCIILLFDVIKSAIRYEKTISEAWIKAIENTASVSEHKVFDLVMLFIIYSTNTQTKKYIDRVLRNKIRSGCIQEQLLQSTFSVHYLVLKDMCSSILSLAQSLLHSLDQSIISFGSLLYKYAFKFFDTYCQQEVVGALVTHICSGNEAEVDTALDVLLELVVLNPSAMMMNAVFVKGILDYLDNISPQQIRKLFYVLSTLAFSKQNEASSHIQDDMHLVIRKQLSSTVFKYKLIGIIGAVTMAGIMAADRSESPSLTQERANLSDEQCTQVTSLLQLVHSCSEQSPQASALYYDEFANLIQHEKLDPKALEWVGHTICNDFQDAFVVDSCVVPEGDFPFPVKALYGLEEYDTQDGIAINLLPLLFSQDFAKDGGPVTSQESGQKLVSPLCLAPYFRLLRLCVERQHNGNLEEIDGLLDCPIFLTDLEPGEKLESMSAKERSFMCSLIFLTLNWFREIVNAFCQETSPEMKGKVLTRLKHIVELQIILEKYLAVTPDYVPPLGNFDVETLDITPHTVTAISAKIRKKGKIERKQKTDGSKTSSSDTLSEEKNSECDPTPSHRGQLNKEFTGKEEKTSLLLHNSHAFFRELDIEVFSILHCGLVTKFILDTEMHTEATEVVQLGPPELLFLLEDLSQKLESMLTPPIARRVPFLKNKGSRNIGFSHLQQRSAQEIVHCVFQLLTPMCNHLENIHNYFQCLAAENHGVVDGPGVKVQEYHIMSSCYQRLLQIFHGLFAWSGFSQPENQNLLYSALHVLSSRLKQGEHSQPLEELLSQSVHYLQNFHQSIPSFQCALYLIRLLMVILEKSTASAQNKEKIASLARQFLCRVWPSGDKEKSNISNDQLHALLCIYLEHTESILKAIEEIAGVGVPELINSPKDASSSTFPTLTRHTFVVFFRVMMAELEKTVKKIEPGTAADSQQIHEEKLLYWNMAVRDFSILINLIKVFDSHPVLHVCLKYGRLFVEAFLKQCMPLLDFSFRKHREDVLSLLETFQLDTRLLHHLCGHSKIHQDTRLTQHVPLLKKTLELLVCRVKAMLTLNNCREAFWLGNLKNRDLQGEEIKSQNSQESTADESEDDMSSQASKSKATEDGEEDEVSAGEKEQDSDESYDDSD

Experiments:
[1] = target: T1, Flag-UHRF1 expressed in HeLa.shUHRF1 cells (human) (UniProt Q96T88); experiment: co-IP; cells treated with TMP/UVA, 1 hour recovery; lysis with Benzonase and the cross-linker DSP (quenched with Tris), extraction in 300mM KCl; M2 anti-Flag agarose, elution with Flag peptide; immunoblotting
T1 sequence: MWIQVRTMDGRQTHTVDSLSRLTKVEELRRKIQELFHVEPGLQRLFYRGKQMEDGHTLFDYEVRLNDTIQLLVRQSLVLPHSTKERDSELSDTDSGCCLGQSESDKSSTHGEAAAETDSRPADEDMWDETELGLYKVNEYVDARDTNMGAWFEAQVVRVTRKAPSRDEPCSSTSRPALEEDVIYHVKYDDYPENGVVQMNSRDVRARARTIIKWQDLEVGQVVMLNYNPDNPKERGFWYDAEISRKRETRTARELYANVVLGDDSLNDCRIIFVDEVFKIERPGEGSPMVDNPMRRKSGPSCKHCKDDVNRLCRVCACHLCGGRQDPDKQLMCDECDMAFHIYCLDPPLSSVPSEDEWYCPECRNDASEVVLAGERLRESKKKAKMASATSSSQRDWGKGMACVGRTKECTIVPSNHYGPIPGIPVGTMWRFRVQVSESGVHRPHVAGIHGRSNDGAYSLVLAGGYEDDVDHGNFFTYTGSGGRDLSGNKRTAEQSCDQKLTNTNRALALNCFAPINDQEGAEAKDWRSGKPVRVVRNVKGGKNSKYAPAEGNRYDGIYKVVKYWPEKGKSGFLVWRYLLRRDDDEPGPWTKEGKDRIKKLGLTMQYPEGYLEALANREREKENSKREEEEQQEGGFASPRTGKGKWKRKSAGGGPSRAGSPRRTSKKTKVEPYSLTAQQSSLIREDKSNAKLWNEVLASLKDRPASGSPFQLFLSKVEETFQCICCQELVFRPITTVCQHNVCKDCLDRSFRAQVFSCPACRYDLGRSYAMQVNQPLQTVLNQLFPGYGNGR

[2] = target: T2, 6xHis-UHRF1 purified from Sf9 cells (human) (UniProt Q96T88); experiment: pull-down; in vitro binding assay; 6xHis-UHRF1 purified using NTA-agarose, immunoblotting for FANCD2; both purified
T2 sequence: T1 sequence

| Substance | binding [1] | binding [2] |
| --- | --- | --- |
| endogenous FANCD2 (HeLa) (from UniProt Q9BXW9 1-1451) | binds | – |
| Flag-HA-FANCD2 purified from Sf9 cells (from UniProt Q9BXW9 1-1451) | – | binds |
